To fix the notation:
T1: UNK ZnF1-3 (human, UniProt Q9C0B0 31-174)
T1 sequence: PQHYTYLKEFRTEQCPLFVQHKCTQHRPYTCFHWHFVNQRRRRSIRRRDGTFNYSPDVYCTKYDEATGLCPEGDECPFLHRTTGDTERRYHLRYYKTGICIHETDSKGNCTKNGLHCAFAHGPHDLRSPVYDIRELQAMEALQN

B1: chr9:120860725:120860726:+_ENSMUSG00000006932_ENSMUST00000007130|mus_hu|FALSE|FALSE (ssRNA)
RNA: GGGAGUUCUACAGUCCGACGAUCCAUUUUAGCUCCUUCUUGAUGUAAUAAAAGGUUGUGGAGAGUUGUAAUGGCAUAAAACAACACAGAAUCCACUGGUGAACCAAGCAUUUUCACCAGGGCAGGAAUGCCUCCAGACUUAAACAACAGAGGAUUGAGCAUCA
B2: chr17:88398918:88398919:-_ENSMUSG00000005371_ENSMUST00000130379|mus_hu|motif|central (ssRNA)
RNA: GGGAGUUCUACAGUCCGACGAUCAUGAAUUUUGUUAUGCCGAACAAUUGGACAACUGUUUGUCCUAAUUUGAAUUCCUGCGGAUGCAUUGCCAUAAAUGUCAUUUCCUUCAAUAAGGCCUCGUCCAUCACCAAAGAUGUAAACCAACAGAGGAUUGAGCAUCA
B3: chr1:65854986:65854987:+_ENSG00000116675_ENST00000371069|hu_mus|FALSE|FALSE (ssRNA)
RNA: GGGAGUUCUACAGUCCGACGAUCGAGGAUGCUGGGGUUCACAUCUUUUGUGCAGUAGUGUUCCCAUGGUGGAGUUAAGUCGAUCACUUUGUCUUGGGGCUGGACUUCUAUAUCCAGUGUCACUUGGAACAGCUGAGGAUAUUUCAACAGAGGAUUGAGCAUCA
B4: chr11:18503389:18503390:-_ENSG00000074319_ENST00000251968|hu_hu|hu_hu_hu_mus_True|48_48 (ssRNA)
RNA: GGGAGUUCUACAGUCCGACGAUCAUUUUCCAUUUUCUCCAGAGCAGAACUUAGUUCUUCAUCCUUCUUUUUCAAAAGUUCUAUGUUUUUAUCAACCUCAGCUACUUCUUGAUCUAAGCGGGUGACCAUCUCUUCCAGUUUCUGCAACAGAGGAUUGAGCAUCA
B5: 120980267_120980387_1903_3pUTR_ENSG00000164109_ENST00000296509|human|control|control (ssRNA)
RNA: GGGAGUUCUACAGUCCGACGAUCAAAGUAGGCUGACAAUAAGGCUAAGAGUAUAGUAAAGUACUAAAAUCAACACUUGUUCAACUGGAAUUGUUGGACUAAUUCCAAAGGACAUUUAUCUUUUCACAAUGAUGAAGUAAUAGCCAACAGAGGAUUGAGCAUCA
B6: chr3:52290438:52290439:-_ENSG00000164091_ENST00000296490|hu_hu|motif|central (ssRNA)
RNA: GGGAGUUCUACAGUCCGACGAUCUAUAUGCGUAUCUGUAUGCACACAGAUGUAUUUAAAUGAAGGUGCAUACACUGUGCGGAAAUACAAACAACAGAAAUCAAAGGUCAUAUAUAAAAACGCUAAAUAUGACAUAUAACACAGCAACAGAGGAUUGAGCAUCA
B7: 45364558_45364678_5291_3pUTR_ENSG00000175387_ENST00000356825|human|control|control (ssRNA)
RNA: GGGAGUUCUACAGUCCGACGAUCAAAUAAUUUUAACAAAAGGGAAAGCAUUUGACAGUGUUUAAAAGACAGACAAAUCAAGCAAAACUCAAUGUGGCUUAAGGUAAAAAAUACAACUAGGUAUUAAACAAUUUGUAAAAACUUCAACAGAGGAUUGAGCAUCA
B8: chr4:115894766:115894767:+_ENSMUSG00000028698_ENSMUST00000030464|mus_hu|mus_mus_mus_hu_True|28_68 (ssRNA)
RNA: GGGAGUUCUACAGUCCGACGAUCUUCCACACGGAAAUGUACUUCGGGUUUUCCAACGGCCAGUACCGUCCAGCCAAAACUACCCGAACAGGGUCCUCCCCCUCUCUUCUCUCCUCCACAACAAAAUGCCCCCGAACUUUCAAGCAACAGAGGAUUGAGCAUCA
B9: chr14:89307221:89307222:+_ENSG00000165533_ENST00000346301|hu_mus|hu_hu_hu_mus_False|58_58 (ssRNA)
RNA: GGGAGUUCUACAGUCCGACGAUCUCCUGUUUGGUUAGUGCCAGGGAGCUUCAAAGAUGUGCCAGGGCGUGGGACCUGAGCUAUAGCAUUUUCAUCCAGGAUCAUUUCAGCAAUUCCUUCCUGGUCCACAUCAAUUUCAUCUAUCAACAGAGGAUUGAGCAUCA
B10: chr7:16573483:16573484:-_ENSMUSG00000070808_ENSMUST00000094821|mus_hu|FALSE|FALSE (ssRNA)
RNA: GGGAGUUCUACAGUCCGACGAUCGGGGGCAGCGGCCGCCAGGAUCUGCCCGCCCACGUUGGCCGGCAGGGCUGAGAGCUGCUGCGGGAGCUGGACCGCCGGGGCGCCAGGCAGUAGGAACUGGUUCUGGCCCGGCAGCAUGUGCAACAGAGGAUUGAGCAUCA
B11: chr7:65705844:65705845:+_ENSG00000169902_ENST00000304842|hu_mus|hu_hu_hu_mus_False|18_88 (ssRNA)
RNA: GGGAGUUCUACAGUCCGACGAUCAAACGGAUCUUUGUUACAUAAAUAAGGGGCUGGCUCCCCAUGUUUAACAAUGACCUCCAGAAGGAAGGCUUGCAUGGCAGAAUCUAGCACUUCAUCAGUAACACCCGCCUCAUCCAAGCGCAACAGAGGAUUGAGCAUCA
B12: chr11:35642274:35642275:-_ENSMUSG00000018848_ENSMUST00000018992|mus_mus|FALSE|FALSE (ssRNA)
RNA: GGGAGUUCUACAGUCCGACGAUCCUGCUGACUUGGUGUCACGAUCAGGGGAGGGUUCUCCAAGUCUGGAUAUGCAGCCCUAAUGGCACAGCCAAAGACUUCCUGCAGGCGGCUGUUGAUGUUAAUCAUGUUUUUAGUUGGUUUCAACAGAGGAUUGAGCAUCA
B13: chr1:165623523:165623524:+_ENSG00000143198_ENST00000367886|perfect_dup|motif|central (ssRNA)
RNA: GGGAGUUCUACAGUCCGACGAUCAUAGCCAUAAGCAUAAAGAACUCGUCCAACAAUCCAGGCCAAGCCCAGGCCAGAAGCGGUACGCGGGUGGUAAACACCUCCAACAGCUAGAAAAAAUAAGAAGGGAGGAUACACUUCCAACAACAGAGGAUUGAGCAUCA
B14: chrX:119680447:119680448:-_ENSG00000158290_ENST00000371322|hu_mus|motif|central (ssRNA)
RNA: GGGAGUUCUACAGUCCGACGAUCAAACAAAAAAAUGCUCCUGAUCAUUAUCAUUUGCCUACAGUGGUUUUGCCAGCAUCGGUCGAUCUUUUUGAGAAAAAGAACACUAUCCAAUGAAUCUUCUCUGAACUGAUGAAUCUGUGCCAACAGAGGAUUGAGCAUCA

The results in this text go back to PMC12136788.

The other results are listed elsewhere or left out.

The test deals with T1, UNK ZnF1-3. The experiment in a line: nsRBNS (natural sequence RNA bind-n-seq); RBNS binding buffer (assumed for nsRBNS): 25 mM Tris pH 7.5, 150 mM KCl, 3 mM MgCl2, 0.01% Triton X-100, 500 ug/ml BSA, 20 U/ml SUPERase-In, 4 C; UNK is unkempt and MSI1 is Musashi-1; names of the RNAs are library labels; protein concentration not given here; high values mean tight binding.
Take B1: the binding signal worked out at 1.69 enrichment R.
To B2 belongs 0.859 enrichment R; to B3, 0.878 enrichment R.
On to B4, for which the binding signal was found to be 0.466 enrichment R.
To B5 belongs 0.778 enrichment R; to B6, 0.834 enrichment R; to B7, 2.68 enrichment R.
In turn, B8 gave a binding signal of 1.11 enrichment R.
To B9 belongs 0.905 enrichment R; to B10, 0.86 enrichment R.
To B11 belongs 0.565 enrichment R; to B12, 0.908 enrichment R.
To B13 belongs 1.56 enrichment R; to B14, 1.14 enrichment R.
